# Experimental data from the supplement of paper PMC9446081.
# About 220 (0.56%) of roughly 39,000 compounds showed activity. The list shows a part of the results.
# System: Escherichia coli K-12 BW25113
# Assay: relative growth (OD600 normalised to plate interquartile mean) (fraction); higher = less growth inhibition, active = 0.2 or less
# Conditions: 50 µM; LB; incubation time: overnight (16-24 h)
# 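Further: static incubation at 37 °C against the wild-type strain, values averaged over two biological replicates.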
row,SMILES,relative growth
1,C[C@@H]1CN([C@@H](C)CO)C(=O)Cc2cc(N(C)C)ccc2O[C@@H]1CN(C)S(=O)(=O)c1cn(C)cn1,inactive: 1
2,COc1ccc(S(=O)(=O)Nc2ccc3c(c2)C(=O)N([C@@H](C)CO)C[C@@H](C)[C@H](CN(C)C(=O)Nc2cccc4ccccc24)O3)cc1,inactive: 0.979
3,C[C@H](CO)N1C[C@H](C)[C@H](CN(C)S(=O)(=O)c2ccccc2)Oc2ncc(C#CC(C)(C)O)cc2C1=O,inactive: 1.01
4,COc1ccc(S(=O)(=O)N(C)C[C@H]2Oc3ccc(NC(=O)Cn4cnnn4)cc3CC(=O)N([C@H](C)CO)C[C@H]2C)cc1,inactive: 1.01
5,COc1ccc2c3c([nH]c2c1)[C@H](CO)N(Cc1nccs1)C[C@]13CCN(CC1)C(=O)C1CCOCC1,inactive: 1.01
6,NCCN1CCC(C(=O)O)CC1,inactive: 1.02
7,S=c1cc(-c2ccccc2)oc(-c2ccccc2)c1,inactive: 0.932
8,C[C@H](CO)N1C[C@H](C)[C@H](CN(C)S(=O)(=O)c2ccc(C#N)cc2)Oc2ncc(-c3ccc(F)cc3)cc2C1=O,inactive: 0.989
9,C[C@@H]1CN([C@@H](C)CO)C(=O)c2cc(NC(=O)NC3CCCCC3)ccc2O[C@@H](C)CCCCO[C@@H]1CN(C)C(=O)Nc1ccc2c(c1)OCO2,inactive: 1.02
10,COc1ccccc1S(=O)(=O)N1C[C@H](O)COC[C@@H]2O[C@H](CC(=O)O)CC[C@H]21,inactive: 0.989
11,Cc1ccc(S(=O)(=O)Nc2cccc3c2O[C@@H](CN(C)S(=O)(=O)c2cccs2)[C@@H](C)CN([C@H](C)CO)C3=O)cc1,inactive: 0.961
12,C[C@H]1CN([C@@H](C)CO)C(=O)c2cccc(NS(=O)(=O)c3ccc(Cl)cc3)c2O[C@H]1CN(C)S(=O)(=O)c1cn(C)cn1,inactive: 1.01
13,C[C@H]1CN([C@@H](C)CO)S(=O)(=O)c2ccc(C#Cc3ccccc3F)cc2O[C@@H]1CN(C)CC1CCOCC1,inactive: 1.01
14,Cn1nccc1NC(=O)/C=C/C(=O)O,inactive: 1.04
15,COc1ccc(S(=O)(=O)Nc2ccc3c(c2)C(=O)N([C@H](C)CO)C[C@@H](C)[C@@H](CN(C)S(=O)(=O)c2ccc(Cl)cc2)OCCCC[C@@H](C)O3)cc1,inactive: 1.04
16,Cc1noc(C)c1NC(=O)Nc1cccc2c1O[C@@H](CN(C)Cc1ccc(C(=O)Nc3ccccc3N)cc1)[C@H](C)CN([C@H](C)CO)C2=O,inactive: 1.02
17,Nc1nnnn1-c1ccccc1,inactive: 0.987
18,CC(C)[Si]1(C(C)C)O[C@@H](c2ccccc2)c2cc(C3CC3)nc(-c3ccc(Oc4ccccc4)cc3)c21,inactive: 1.02
19,C[C@@H]1CN([C@H](C)CO)C(=O)c2cc(C3=CCCCC3)cnc2O[C@H]1CN(C)S(=O)(=O)c1cn(C)cn1,inactive: 1.01
20,CC(C)NC(=O)Nc1ccc2c(c1)C(=O)N([C@@H](C)CO)C[C@@H](C)[C@H](CN(C)Cc1ccc(-c3ccccc3)cc1)O2,inactive: 1.04
21,Cc1noc(C)c1NC(=O)Nc1ccc2c(c1)C(=O)N([C@@H](C)CO)C[C@H](C)[C@H](CN(C)C(=O)NC1CCCCC1)OCCCC[C@H](C)O2,inactive: 1.03

row,SMILES,relative growth
1,C[C@H](CO)N1C[C@H](C)[C@@H](CN(C)C(=O)Cc2cccnc2)Oc2ncc(C#Cc3ccccc3F)cc2C1=O,inactive: 1.01
2,Nc1ncnc(NCc2cccnc2)c1[N+](=O)[O-],inactive: 0.98
3,Cc1noc(C)c1S(=O)(=O)Nc1ccc2c(c1)C(=O)N([C@H](C)CO)C[C@H](C)[C@@H](CN(C)S(C)(=O)=O)O2,inactive: 0.988
4,C[C@@H]1CCCCO[C@@H](CN(C)S(=O)(=O)c2ccc(F)cc2)[C@H](C)CN([C@@H](C)CO)C(=O)c2cc(NC(=O)C3CCCCC3)ccc2O1,inactive: 1.02
5,C[C@@H]1CN([C@H](C)CO)C(=O)Cc2cc(NC(=O)CCC(F)(F)F)ccc2O[C@@H]1CN(C)S(=O)(=O)c1cn(C)cn1,inactive: 0.982
6,CNC(=O)CN1CCO[C@H]2CN(C(=O)c3cnccn3)C[C@@H]21,inactive: 1
7,Cn1c(=O)c2cc(S(=O)(=O)NCCC(=O)NC3CCCC3)ccc2n(C)c1=O,inactive: 1.02
8,CCS(=O)(=O)N1C[C@]2(CCN(CC2)S(=O)(=O)c2cn(cn2)C)c2c(n(c3cc(ccc23)OC)C)[C@@H]1CO,inactive: 1
9,CN1CCc2onc(Cn3ccnc3)c2C1,inactive: 1
10,Cc1ccc(S(=O)(=O)N(C)C[C@@H]2OCCCC[C@H](C)Oc3ccc(NC(=O)C4CCCCC4)cc3C(=O)N([C@H](C)CO)C[C@H]2C)cc1,inactive: 1.01
11,C[C@@H]1CN([C@@H](C)CO)C(=O)Cc2cc(NC(=O)CCCCCC(=O)Nc3ccccc3N)ccc2O[C@@H]1CN(C)C(=O)Nc1ccc(C(F)(F)F)cc1,inactive: 1.02
12,C[C@@H]1CN([C@@H](C)CO)C(=O)c2cc(NC(=O)Nc3ccc(C(F)(F)F)cc3)ccc2O[C@@H](C)CCCCO[C@@H]1CN(C)C(=O)Nc1ccccc1,inactive: 1
13,COCC(=O)N(C)C[C@@H]1Oc2cc(C#CCC3CCCC3)ccc2S(=O)(=O)N([C@@H](C)CO)C[C@@H]1C,inactive: 0.973
14,COc1ccc(S(=O)(=O)Nc2ccc3c(c2)C(=O)N([C@H](C)CO)C[C@@H](C)[C@@H](CN(C)Cc2ccccc2)OCCCC[C@@H](C)O3)cc1,inactive: 0.988
15,C[C@@H]1CCCCO[C@@H](CN(C)S(=O)(=O)c2ccc(Cl)cc2)[C@@H](C)CN([C@H](C)CO)C(=O)c2cc(NS(=O)(=O)c3ccc(Cl)cc3)ccc2O1,inactive: 1.01
16,CS(=O)(=O)N1[C@@H]2Cn3c(ccc(C4=CCCCC4)c3=O)[C@H]1[C@@H](C(=O)N1CCOCC1)[C@@H]2CO,inactive: 1.01
17,C[C@H]1CN([C@@H](C)CO)S(=O)(=O)c2ccc(C#CC3CC3)cc2O[C@H]1CN(C)Cc1ccc(F)cc1,inactive: 0.918
18,C[C@H](CO)N1C[C@H](C)[C@@H](CN(C)C(=O)Nc2ccc(C(F)(F)F)cc2)Oc2ccc(NS(=O)(=O)c3ccc(F)cc3)cc2C1=O,inactive: 0.995
19,C[C@@H]1CN([C@H](C)CO)C(=O)c2cc(NC(=O)Nc3ccc4c(c3)OCO4)ccc2O[C@@H](C)CCCCO[C@@H]1CN(C)Cc1ccccc1,inactive: 0.985
20,COc1ccc(C(=O)Nc2ccc(CN3C(=O)[C@]4(O[C@H](CC(=O)N(CCO)Cc5ccccc5)[C@@H]([Si](C)(C)c5ccc(OC)cc5)[C@@H]4C)c4ccccc43)cc2)cc1,inactive: 1.03
21,C[C@H]1CN([C@@H](C)CO)C(=O)Cc2cc(NC(=O)Cn3cnnn3)ccc2O[C@H]1CN(C)S(=O)(=O)c1ccc(F)cc1,inactive: 1.01

row,SMILES,relative growth
1,N[C@@H](CC(=O)N1CCn2c(nnc2C(F)(F)F)C1)Cc1cc(F)c(F)cc1F,inactive: 0.977
2,CCS(=O)(=O)Nc1ccc2c(c1)C(=O)N(C)[C@@H]1CC[C@H](CC(=O)NCCOC)O[C@@H]1CO2,inactive: 0.998
3,COc1ccc(NC(=O)Nc2cccc3c2O[C@H](CN(C)Cc2ccc(C(F)(F)F)cc2)[C@@H](C)CN([C@@H](C)CO)C3=O)cc1,inactive: 0.817
4,CCCNC(=O)N1C[C@H](O)COC[C@H]2O[C@@H](CC(=O)N3CCN(C)CC3)CC[C@@H]21,inactive: 0.989
5,C[C@@H]1CN([C@H](C)CO)C(=O)c2cccc(NC(=O)C3CCOCC3)c2O[C@H]1CN(C)C(=O)NC1CCCCC1,inactive: 0.998
6,C[C@@H]1CN([C@@H](C)CO)S(=O)(=O)c2ccc(C#CC3CC3)cc2O[C@H]1CN(C)C(=O)c1cccc(F)c1,inactive: 1.02
7,C[C@@H]1CCCCO[C@H](CN(C)S(=O)(=O)c2ccc(Cl)cc2)[C@H](C)CN([C@@H](C)CO)C(=O)c2cc(NC(=O)Nc3cccc4ccccc34)ccc2O1,inactive: 1.02
8,Cc1noc(C)c1S(=O)(=O)Nc1ccc2c(c1)C(=O)N([C@H](C)CO)C[C@@H](C)[C@H](CN(C)C(=O)NC1CCCCC1)O2,inactive: 1.01
9,C[C@H](CO)N1C[C@H](C)[C@H](CN(C)S(=O)(=O)c2ccccc2F)Oc2cc(-c3ccncc3)ccc2S1(=O)=O,inactive: 1.01
10,C[C@@H]1CN([C@H](C)CO)C(=O)c2cc(NC(=O)Nc3ccc(F)cc3)ccc2O[C@@H](C)CCCCO[C@H]1CN(C)Cc1ccc(Cl)c(Cl)c1,inactive: 0.997
11,CN(C)CCN1C[C@@H]2CN(C(=O)c3cnc[nH]3)C[C@H]2C1=O,inactive: 0.973
12,CCC(=O)N(C)C[C@@H]1Oc2ncc(C#C[C@@H](C)O)cc2C(=O)N([C@@H](C)CO)C[C@@H]1C,inactive: 1.04
13,C[C@@H]1CN([C@H](C)CO)C(=O)c2cccc(NS(=O)(=O)c3cccs3)c2O[C@H]1CN(C)Cc1ccncc1,inactive: 0.993
14,N=C(CN1CCCCC1)NO,inactive: 0.989
15,COc1ccc(S(=O)(=O)N(C)C[C@H]2Oc3ccc(N(C)C)cc3CC(=O)N([C@@H](C)CO)C[C@H]2C)cc1,inactive: 0.99
16,CCCCn1c(SCC(N)=O)nc2c1c(=O)n(C)c(=O)n2C,inactive: 1.01
17,Cc1noc(C)c1NC(=O)Nc1ccc2c(c1)C(=O)N([C@@H](C)CO)C[C@H](C)[C@@H](CN(C)C(=O)Nc1cccc3ccccc13)OCCCC[C@@H](C)O2,inactive: 0.991
18,COc1ccc(NC(=O)Nc2ccc3c(c2)C(=O)N([C@H](C)CO)C[C@H](C)[C@H](CN(C)S(C)(=O)=O)O3)cc1,inactive: 0.993
19,C[C@H]1CN([C@@H](C)CO)C(=O)Cc2cc(NS(=O)(=O)c3ccc(F)cc3)ccc2O[C@@H]1CN(C)Cc1ccc(Oc2ccccc2)cc1,inactive: 1.01
